Assay results reported in PubChem BioAssay AID2060493 (Molecular Pharmacology Branch, DTP, NCI, 2025).
The source holds more than one record for some entries. They are shown here; other results are not. There may be further records. Values that stand side by side repeat one measurement (runs, samples, wells, individuals or studies). Brackets with × give the number of equal values in this list.

System: 616215-338-R-J1-PDC tumor spheroids, viability
Experiment: Anticancer human tumor 616215-338-R-J1-PDC patient-derived colon adenocarcinoma cell line growth inhibition [GQUAD]
Settings: spheroids with HUVEC and MSC; for viability, T/C: stronger effect = lower value
From the text: DNA G-quadruplex Stabilizer Agents in Combinations in Complex Spheroids
A high-throughput screen of multi-cell type tumor spheroids was designed to identify active combinations of DNA G-quadruplex stabilizer agents and targeted small molecules. Complex spheroids include a stromal component modeled by human endothelial cells (HUVEC) and fibroblasts modeled by human mesenchymal stem cells (MSCs). The concentration ranges selected for each drug and investigational agent were based upon clinically achievable concentrations if the clinical Cmax of the agent was known.
Compounds. The drugs and investigational agents: pidnarulex (CX-5461; NSC782164), APTO-253 (NSC789042), BRACO-19 (NSC847499), peposertib (NSC802822), ceralasertib (NSC780249), elimusertib (NSC800525), camonsertib (NSC841442), AZD-1390 (NSC803789), olaparib (NSC753686), talazoparib (NSC767125), ART-558 (NSC835418), sotorasib (NSC818433), MRTX-1133 (NSC836407), SN-38 (NSC673596), topotecan (NSC609699), etoposide (NSC141540), doxorubicin (NSC123127), gemcitabine (NSC613327), 5-fluorouracil (NSC19893), paclitaxel (NSC125973), vemurafenib (NSC761431), panobinostat (NSC761190), R-306465 (JNJ-16241199; NSC773264), adavosertib (NSC754352), TP-3654 (NSC805149), carboplatin (NSC241240), KSQ-4279 (NSC840948), and staurosporine (NSC755774) were obtained from the National Cancer Institute (NCI) Developmental Therapeutics Program Chemical Repository (34). The FDA-approved anticancer drug set is available from the NCI Developmental Therapeutics Program. […] The stock solutions were prepared in dimethyl sulfoxide (DMSO, Sigma-Aldrich, St. Louis, MO, cat. D2650) at 800-fold the tested concentration and stored at -70 degrees C prior to their use. All drugs and investigational agents were tested over a range starting from a high concentration at or near the clinical Cmax and decreasing in half-log increments. If the clinical Cmax for an agent had not been determined, the highest concentration tested was 10 microM.
2.3 Cell Culture. All cells were maintained in an incubator at 37 degrees C and 5% CO2 with 95% humidity. The PDC lines were cultured according to standard operating procedures established by the NCI PDMR. All PDCs were thawed and cultured in Matrigel-coated flasks prepared with a working solution of 1X Ham's F-12 nutrient mix, without supplementation (Invitrogen, cat. 11765054), 100 U/mL penicillin-streptomycin (Invitrogen, cat. 15140122), and 2.5% Matrigel (Corning Inc., cat. 354248) for the first three passages. […]
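Further: spheroids exposed to agents for 7 days before readout.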
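Wherever viability, T/C is given: percent viability relative to DMSO vehicle control wells taken as 100%.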

Cc1cnc(CNC(=O)c2c(=O)c3ccc(N4CCCN(C)CC4)nc3n3c2sc2ccccc23)cn1
viability, T/C (compound alone 0.1 µM): 85.6, 87.3 (2×), 69.2, 67.4, 65.6, 74.6, 70, 61, 57.3, 58.7, 82.9%
viability, T/C (compound alone 0.316 µM): 49.2, 40.2, 49.6, 65.9, 48.5, 45.1, 38.7, 38.2 (2×), 55.1, 46, 57.4%
viability, T/C (compound alone 1 µM): 40, 50.4, 59.5, 40.5, 29.7, 31.6, 26.8, 34.9, 37.4, 30.8, 29.9, 22.8%
IC50 (compound alone, run of 04/16/2024): 377, 250, 653, 548, 300, 232, 223, 212, 288, 160, 211, 348 nM
